Reference: PubChem BioAssay AID463173 (ICCB-Longwood Screening Facility, Harvard Medical School, 2010)
Hit rate of the full screen: of about 52,000 compounds, about 4,300 (8.3%) were called active. Rule as the data show it: active = survival mostly below about 52% (no sharp cut-off); inactive = mostly above about 56%. This is one part of the list.

Tested on: DeltatarO mutant
Assay: growth inhibition of S. aureus wild type versus tarO mutant, primary screen, teichoic acid synthesis inhibitors, RN4220, OD600 (AID 463173)
Settings: OD600, 18 h, active compounds read low, screened at 18.75 µg/mL (by protocol)

Structure (SMILES)	survival
Cc1cccc(NC(=O)c2cc(S(=O)(=O)N3CCC4(CC3)OCCO4)ccc2F)c1	inactive: 85%
O=C(CCNS(=O)(=O)c1ccc2c(c1)CCN2C(=O)C1CC1)Nc1ccc(F)cc1F	inactive: 72%
CCOC(=O)c1ccc(NC(=O)Cn2cc(C(=O)c3ccc(Cl)cc3)c(=O)c3ccc(C)nc32)cc1	inactive: 78%
COc1cc(OC)cc(-c2nc3nc(C)c(CCC(=O)Nc4cc(F)ccc4F)c(C)n3n2)c1	inactive: 74%
O=C(NCCc1csc(-c2ccc(F)cc2)n1)c1ccc(Br)o1	inactive: 92%
Cc1ccccc1CN1CCN(CC(=O)NCc2ccccc2Cl)C1=O	inactive: 78%
COc1ccc2oc(-c3ccc(C)c(NC(=O)Cc4ccc(Cl)cc4)c3)nc2c1	inactive: 151%
O=C(C1=C(N2CCCCC2)c2ccccc2S(=O)(=O)N1)c1ccccc1	inactive: 94%
CCC(=O)Nc1nnc(S(=O)(=O)N2CCc3ccccc32)s1	inactive: 76%
Cc1nc2c(C(=O)NC(C)c3ccccc3)cnn2c(C)c1Cc1ccccc1 (stereo not drawn)	inactive: 72%
COC(=O)c1cc2occc2n1Cc1nc(-c2ccc(C)cc2)oc1C	inactive: 69%
CCN(CC)C(=O)c1ccccc1C	active: 48%
COc1cccc2sc(N(Cc3cccnc3)C(=O)C3COc4ccccc4O3)nc12 (stereo not drawn)	inactive: 102%
COc1ccc(N(C)C(=O)CCS(=O)(=O)c2cccc3nsnc23)cc1	inactive: 49%
Cc1c(NC(=O)c2ccccc2F)cccc1-c1nc2cccnc2s1	inactive: 90%
CCOc1ccc(-n2c(SCC(=O)NC3CCCC3)nnc2-c2ccoc2C)cc1	inactive: 92%
Cc1ccc(Nc2nc3ccccc3c3nncn23)cc1C	active: -4%
O=C(Cn1ncc2c(=O)oc3ccccc3c21)NCc1ccc(Cl)cc1	inactive: 86%
CC(=O)N1CCCc2cc(S(=O)(=O)N(C)CC(=O)Nc3ccc(Cl)cc3C)ccc21	inactive: 113%
CCn1cc(C(=O)NCc2ccccc2)c(=O)c2cc(S(=O)(=O)N3CCCCCC3)ccc21	inactive: 67%

Structure (SMILES)	survival
COc1ccc(NC(=O)c2ccc(COc3ccccc3OC)o2)cc1OC	inactive: 61%
Cc1ccc(OCc2nc3ccccc3n2Cc2ccccc2Cl)cc1	active: -8%
COc1ccc(Br)cc1CNC(=O)C1CCCCN1S(=O)(=O)c1ccc(F)cc1 (stereo not drawn)	inactive: 81%
CCCNC(=O)CCc1c(C)nc2nc(-c3cc(OC)cc(OC)c3)nn2c1C	inactive: 81%
COc1cccc(CNC(=O)CCC(=O)N2Cc3cccc(OC)c3Oc3ncccc32)c1OC	inactive: 80%
CCc1ccc(-c2[nH]c3c(c2-c2sc(C)c(C(=O)OC)c2O)c(=O)n(C)c(=O)n3C)cc1	inactive: 51%
CCN(CC)/C(N)=N/c1nc(C)cc(C)n1	inactive: 93%
CC1Cn2cc(C(=O)Nc3cccc(C(F)(F)F)c3)c(=O)c3c(Cl)ccc(c32)O1 (stereo not drawn)	inactive: 83%
Cc1ccc(-c2onc(C)c2C)cc1S(=O)(=O)NC1CCCCC1	inactive: 77%
COC(=O)c1nnn(CC(=O)Nc2ccc(Br)c(C)c2)c1N	inactive: 90%
Cc1ccc(-n2c(=O)c3c(c4cc(C)ccc4n3C)n(CC(=O)Nc3cc(C)cc(C)c3)c2=O)cc1	inactive: 105%
COc1ccc2c(c1)CCc1c(C(=O)Nc3c(C)nn(Cc4ccc(C)cc4)c3C)noc1-2	inactive: 64%
Cc1ccc(C)c(NC(=O)c2cc(S(=O)(=O)NCCC3=CCCCC3)ccc2F)c1	active: 52%
CCCN(CCC)C(=O)C1CCN(c2ncnc3c2nc2n3CCCCC2)CC1	inactive: 84%
COc1ccc(CNC(=O)C(C(C)C)N2Cc3ccccc3C2=O)cc1 (stereo not drawn)	active: -5%
CCOc1ccc(CCNC(=O)CN(c2ccc(C)cc2)S(=O)(=O)N(C)C)cc1OCC	inactive: 84%
O=c1c(S(=O)(=O)c2ccccc2)cn(Cc2ccc(F)cc2)c2cc(N3CCCCC3)c(F)cc12	inactive: 80%
CC(NC(=O)C(=O)Nc1c2c(nn1-c1ccc(F)cc1)CSC2)c1ccccc1 (stereo not drawn)	active: -2%
COc1cccc(CNC(=O)CCn2cccn2)c1	inactive: 86%
CCOC(=O)c1c(-c2ccc(OC)cc2)oc2ccc(OCc3ccc(C(=O)OC)cc3)cc12	inactive: 48%

Structure (SMILES)	survival
NCCNC(=O)c1ccco1	inactive: 99%
CCNc1c(NC(=O)c2cc(OCC)c(OCC)c(OCC)c2)c(=O)oc2ccccc12	inactive: 98%
CC(C)(C)C(=O)Nc1cccc(C(=O)OCc2cc(=O)n3nc(C4CCCCC4)sc3n2)c1	inactive: 124%
O=C(CSc1nc2ccccc2n1Cc1ccccc1Cl)NCc1ccccc1	inactive: 96%
N#C/C(=C\c1ccc(-c2cc(Cl)ccc2Cl)o1)C(=O)Nc1ccccc1C(=O)O	active: 37%
CCCCN(C)CCNC(=O)c1nn(-c2ccc(OC)cc2)c(=O)c2c1c1ccccc1n2C	inactive: 105%
CCOC(=O)c1[nH]cnc1C(=O)Nc1ccc(F)cc1	inactive: 64%
COc1cccc(CNC(=O)CCNS(=O)(=O)c2ccc3c(c2)oc(=O)n3C)c1	inactive: 93%
Cc1cc(C)c(Cn2c(C(O)c3ccccc3)nc3ccccc32)c(C)c1 (stereo not drawn)	active: 31%
CCC(=O)N1CCc2cc(Br)cc(S(=O)(=O)NCCc3ccccc3)c21	active: 43%
CCOC(=O)c1c(NC(=O)COc2ccc(F)cc2)sc2c1CCC(C)C2 (stereo not drawn)	inactive: 70%
CCc1cc(C=Nc2ccccc2)c(O)s1	inactive: 98%
O=C(NCCCN1CCN(c2ccccc2F)CC1)c1nnc(Cc2ccc(Cl)cc2Cl)o1	inactive: 80%
COc1cccc(C(=O)Nc2ccc(NC(=O)c3ccc(C(C)(C)C)cc3)cc2)c1	inactive: 105%
COC(=O)C(CCSC)NC(=O)c1cc2c(n(-c3ccc(OC)cc3)c1=O)CC(C)(C)CC2=O (stereo not drawn)	inactive: 71%
COc1ccc(S(=O)(=O)Nc2cccc(-c3ccc(N4CCCCCC4)nn3)c2)c(OC)c1	inactive: 74%
COc1cccc2c1Oc1ncccc1N(c1ccc(C(=O)NCc3cccc(C)c3)s1)C2	inactive: 80%
CC1(C(=O)Nc2ncc(Cc3ccc(Br)cc3)s2)Cc2ccccc2C(=O)O1 (stereo not drawn)	inactive: 113%
